# Data taken from the supplement of paper PMC11741623.
# Some of the results follow. Interaction screen of human proteins with wild-type SARS-CoV-2 proteins by split-DHFR complementation in yeast, 1 µg/mL methotrexate. Value = fitness of the pair (three or more lineages) minus that of the viral protein without a human partner, on a scale set by negative (0) and fused positive (1) controls, mean of up to three cultures; higher = more likely to interact. Active = false discovery rate below 0.05 (one-sided t-test) in at least one culture. Nearly all pairs are not hits, and differences among them are mostly noise (correlation between cultures about 0.3); most hits were seen in one culture only. Human sequences are the Swiss-Prot entries looked up by gene name; the clone may be another isoform. NSP2 values were corrected by the authors for a growth advantage. Listed are human proteins with a hit and a random twelfth of the others.
# B1: FKBP3, Q00688 (protein)
# chain: MAAAVPQRAWTVEQLRSEQLPKKDIIKFLQEHGSDSFLAEHKLLGNIKNVAKTANKDHLVTAYNHLFETKRFKGTESISKVSEQVKNVKLNEDKPKETKSEETLDEGPPKYTKSVLKKGDKTNFPKKGDVVHCWYTGTLQDGTVFDTNIQTSAKKKKNAKPLSFKVGVGKVIRGWDEALLTMSKGEKARLEIEPEWAYGKKGQPDAKIPPNAKLTFEVELVDID
# B2: GPX1, P07203 (protein)
# chain: MCAARLAAAAAAAQSVYAFSARPLAGGEPVSLGSLRGKVLLIENVASLUGTTVRDYTQMNELQRRLGPRGLVVLGFPCNQFGHQENAKNEEILNSLKYVRPGGGFEPNFMLFEKCEVNGAGAHPLFAFLREALPAPSDDATALMTDPKLITWSPVCRNDVAWNFEKFLVGPDGVPLRRYSRRFQTIDIEPDIEALLSQGPSCA
# B3: HSD17B3, P37058 (protein)
# chain: MGDVLEQFFILTGLLVCLACLAKCVRFSRCVLLNYWKVLPKSFLRSMGQWAVITGAGDGIGKAYSFELAKRGLNVVLISRTLEKLEAIATEIERTTGRSVKIIQADFTKDDIYEHIKEKLAGLEIGILVNNVGMLPNLLPSHFLNAPDEIQSLIHCNITSVVKMTQLILKHMESRQKGLILNISSGIALFPWPLYSMYSASKAFVCAFSKALQEEYKAKEVIIQVLTPYAVSTAMTKYLNTNVITKTADEFVKESLNYVTIGGETCGCLAHEILAGFLSLIPAWAFYSGAFQRLLLTHYVAYLKLNTKVR
# B4: IGSF8, Q969P0 (protein)
# chain: MGALRPTLLPPSLPLLLLLMLGMGCWAREVLVPEGPLYRVAGTAVSISCNVTGYEGPAQQNFEWFLYRPEAPDTALGIVSTKDTQFSYAVFKSRVVAGEVQVQRLQGDAVVLKIARLQAQDAGIYECHTPSTDTRYLGSYSGKVELRVLPDVLQVSAAPPGPRGRQAPTSPPRMTVHEGQELALGCLARTSTQKHTHLAVSFGRSVPEAPVGRSTLQEVVGIRSDLAVEAGAPYAERLAAGELRLGKEGTDRYRMVVGGAQAGDAGTYHCTAAEWIQDPDGSWAQIAEKRAVLAHVDVQTLSSQLAVTVGPGERRIGPGEPLELLCNVSGALPPAGRHAAYSVGWEMAPAGAPGPGRLVAQLDTEGVGSLGPGYEGRHIAMEKVASRTYRLRLEAARPGDAGTYRCLAKAYVRGSGTRLREAASARSRPLPVHVREEGVVLEAVAWLAGGTVYRGETASLLCNISVRGGPPGLRLAASWWVERPEDGELSSVPAQLVGGVGQDGVAELGVRPGGGPVSVELVGPRSHRLRLHSLGPEDEGVYHCAPSAWVQHADYSWYQAGSARSGPVTVYPYMHALDTLFVPLLVGTGVALVTGATVLGTITCCFMKRLRKR
# Target: SARS-CoV-2 M
# Test: yeast fitness gain over the viral ORF with no human partner (scaled fitness); higher = more likely to interact
# Protocol: (§1)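 Split mouse DHFR complementation in pooled diploid yeast: human ORFeome clones carry one fragment and viral ORFs the other; barcoded lineages compete in 1 µg/mL methotrexate and fitness is read by barcode sequencing in up to three cultures.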
row,Binder,yeast fitness gain
1,B1,inactive: 0.0332
2,B2,inactive: 0.0477
3,B3,inactive: 0.0136
4,B4,inactive: -0.0327

# Target: SARS-CoV-2 NSP1
# Test: as above
# Protocol: as §1
row,Binder,yeast fitness gain
1,B1,inactive: -0.137
2,B2,inactive: 0.0774
3,B3,inactive: -0.0337
4,B4,inactive: -0.128

# Target: SARS-CoV-2 NSP10
# Test: as above
# Protocol: as §1
row,Binder,yeast fitness gain
1,B1,inactive: 0.0185
2,B2,inactive: -0.0272
3,B3,inactive: -0.0387
4,B4,inactive: -0.0966

# Target: SARS-CoV-2 NSP12
# Test: as above
# Protocol: as §1
row,Binder,yeast fitness gain
1,B1,inactive: 0.0772
2,B2,inactive: -0.0255
3,B3,inactive: 0.0968
4,B4,inactive: -0.0774

# Target: SARS-CoV-2 NSP13
# Test: as above
# Protocol: as §1
row,Binder,yeast fitness gain
1,B1,inactive: -0.000409
2,B2,inactive: -0.00571
3,B3,inactive: -0.00599
4,B4,inactive: 0.00563

# Target: SARS-CoV-2 NSP14
# Test: as above
# Protocol: as §1
row,Binder,yeast fitness gain
1,B1,inactive: -0.192

# Target: SARS-CoV-2 NSP15
# Test: as above
# Protocol: as §1
row,Binder,yeast fitness gain
1,B1,inactive: 0.0664
2,B2,inactive: -0.00233
3,B3,inactive: 0.0616

# Target: SARS-CoV-2 NSP2
# Test: as above
# Protocol: as §1
row,Binder,yeast fitness gain
1,B1,active: 0.277
2,B2,inactive: -0.07
3,B3,inactive: -0.0586
4,B4,inactive: -0.336

# Target: SARS-CoV-2 NSP4
# Test: as above
# Protocol: as §1
row,Binder,yeast fitness gain
1,B1,inactive: 0.292
2,B2,inactive: 0.107
3,B3,inactive: -0.269

# Target: SARS-CoV-2 NSP5
# Test: as above
# Protocol: as §1
row,Binder,yeast fitness gain
1,B1,inactive: -0.0423
2,B2,inactive: 0.0155
3,B3,inactive: 0.0388

# Target: SARS-CoV-2 NSP6
# Test: as above
# Protocol: as §1
row,Binder,yeast fitness gain
1,B1,inactive: -0.25
2,B2,inactive: 0.0217
3,B3,inactive: 0.0498

# Target: SARS-CoV-2 NSP7
# Test: as above
# Protocol: as §1
row,Binder,yeast fitness gain
1,B1,inactive: -0.0545
2,B2,inactive: 0.0539
3,B3,inactive: 0.0153
4,B4,inactive: -0.00793

# Target: SARS-CoV-2 NSP8
# Test: as above
# Protocol: as §1
row,Binder,yeast fitness gain
1,B1,inactive: 0.017
2,B2,inactive: 0.00965
3,B3,inactive: 0.03
4,B4,inactive: -0.0297

# Target: SARS-CoV-2 NSP9
# Test: as above
# Protocol: as §1
row,Binder,yeast fitness gain
1,B1,inactive: 0.165
2,B2,inactive: -0.0582
3,B3,inactive: -0.0271
4,B4,inactive: 0.104

# Target: SARS-CoV-2 ORF10
# Test: as above
# Protocol: as §1
row,Binder,yeast fitness gain
1,B1,inactive: -0.00368
2,B2,inactive: 0.0492
3,B3,inactive: -0.0397
4,B4,inactive: -0.39

# Target: SARS-CoV-2 ORF3A
# Test: as above
# Protocol: as §1
row,Binder,yeast fitness gain
1,B1,inactive: 0.0708
2,B3,inactive: 0.036
3,B4,inactive: 0.141

# Target: SARS-CoV-2 ORF3B
# Test: as above
# Protocol: as §1
row,Binder,yeast fitness gain
1,B1,inactive: 0.00162
2,B2,inactive: -0.0194
3,B3,inactive: 0.047
4,B4,inactive: -0.0804

# Target: SARS-CoV-2 ORF6
# Test: as above
# Protocol: as §1
row,Binder,yeast fitness gain
1,B1,inactive: 0.00366
2,B2,inactive: -0.115
3,B3,inactive: 0.0141
4,B4,inactive: -0.00155

# Target: SARS-CoV-2 ORF7A
# Test: as above
# Protocol: as §1
row,Binder,yeast fitness gain
1,B1,inactive: -0.0938
2,B2,inactive: 0.0584
3,B3,inactive: 0.0321
4,B4,inactive: -0.123

# Target: SARS-CoV-2 ORF7B
# Test: as above
# Protocol: as §1
row,Binder,yeast fitness gain
1,B1,inactive: 0.0433
2,B2,inactive: -0.0894
3,B3,inactive: -0.000585
4,B4,inactive: -0.0571

# Target: SARS-CoV-2 ORF8
# Test: as above
# Protocol: as §1
row,Binder,yeast fitness gain
1,B1,inactive: 0.069
2,B2,inactive: 0.0825
3,B3,inactive: -0.0435
4,B4,inactive: -0.189

# Target: SARS-CoV-2 ORF9B
# Test: as above
# Protocol: as §1
row,Binder,yeast fitness gain
1,B1,inactive: -0.0305
2,B2,inactive: -0.0175
3,B3,inactive: 0.0357
4,B4,inactive: -0.0021

# Target: SARS-CoV-2 ORF9Bwu (the 73-codon ORF)
# Test: as above
# Protocol: as §1
row,Binder,yeast fitness gain
1,B1,inactive: 0.0807
2,B2,inactive: 0.147
3,B3,inactive: 0.051
4,B4,inactive: -0.133

# Target: SARS-CoV-2 S
# Test: as above
# Protocol: as §1
row,Binder,yeast fitness gain
1,B1,inactive: 0.148
2,B2,inactive: -0.0557
3,B3,inactive: -0.0102

# Target: SARS-CoV-2 NSP16
# Test: as above
# Protocol: as §1
row,Binder,yeast fitness gain
1,B2,inactive: 0.0941
2,B3,inactive: 0.0292
3,B4,inactive: -0.0633

# Target: SARS-CoV-2 N
# Test: as above
# Protocol: as §1
row,Binder,yeast fitness gain
1,B3,inactive: 0.0107
